# Measured values: PubChem BioAssay AID588795 (National Center for Advancing Translational Sciences (NCATS), 2011)
# Screen size: about 390,000 compounds; about 1,400 (0.36%) were called active. Inconclusive results, whose numbers are uncertain, are shown with a selection of clear calls. Calls follow the shape of the dose curve; as a rule, active = well fitted inhibition curve with a large enough effect; inconclusive = small, poorly fitted or top-dose-only effect; inactive = no such curve, though single readings can be large or run the other way. A potency beside an inconclusive call is a rough fit, not a confirmed value.
# Target: Flap endonuclease 1 (Homo sapiens) (UniProt P39748)
# Experiment: qHTS Assay for the Inhibitors of Human Flap endonuclease 1 (FEN1). Also: nearly all actives have a fitted effect of over 65% in size.
# Conditions: Recombinant FEN1 flap cleavage, fluorescence, 15 min; series mostly up to 114 µM; activity change, negative = inhibition: at the top concentration
# How it was run: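 In this screen, 50 nM flap DNA substrate was added to 10 nM FEN1 pretreated with compound for 15 min at room temperature; cleavage was followed with reads at 0 and 15 min, and Hill fitting gave concentration–response parameters.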
# % is scaled to controls: 0 for no effect and ±100 for the full control effect; potency is read from the fitted curve at half-maximal effect; tags tell the direction and shape of the fitted curve.
# Sequence of UniProt P39748 (P39748 whole entry, looked up): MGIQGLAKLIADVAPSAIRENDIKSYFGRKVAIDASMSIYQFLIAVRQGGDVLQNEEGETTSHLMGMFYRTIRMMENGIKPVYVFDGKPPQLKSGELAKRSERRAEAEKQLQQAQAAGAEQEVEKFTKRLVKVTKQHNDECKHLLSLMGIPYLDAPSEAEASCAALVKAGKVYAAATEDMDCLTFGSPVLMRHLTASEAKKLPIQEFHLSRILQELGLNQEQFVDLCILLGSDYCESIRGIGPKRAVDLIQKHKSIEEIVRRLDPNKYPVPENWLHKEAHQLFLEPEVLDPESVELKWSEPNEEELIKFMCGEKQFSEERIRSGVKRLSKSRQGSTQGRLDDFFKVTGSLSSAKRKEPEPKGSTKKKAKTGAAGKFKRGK
SMILES,Potency,"activity change, negative = inhibition"
COC(=O)c1cc(O)c(O)c(O)c1,"inconclusive: 50.1 µM [inhibitor, partial curve, poor fit]",–
COc1ccc(-c2cc(C(=O)N3CCN(c4ccccn4)CC3)c3ccccc3n2)cc1,"inconclusive: 89.1 µM [inhibitor, partial curve, poor fit]",–
CCc1c(C)nc2cc(-c3ccc(OC)c(OC)c3)nn2c1N1CCCC1,"inconclusive: 50.1 µM [inhibitor, partial curve, poor fit]",–
Cc1ccc(C(=O)NCC(=O)OCN2C(=O)c3ccccc3C2=O)cc1C,–,inactive: -0.907%
COc1cc(/C=N/Nc2cccc3cccnc23)cc(OC)c1O,"inconclusive: 4.47 µM [inhibitor, full curve]",–
CCOC(=O)Cc1cn2c(=O)cc(CSCC(=O)Nc3ccc(C)c(C)c3)nc2s1,–,inactive: 36.5%
CN(C(=S)NC(=O)C12CC3CC(CC(C3)C1)C2)c1ccc(O)cc1,"inconclusive: 25.1 µM [inhibitor, partial curve, poor fit]",–
COc1ccccc1N1CCN(S(=O)(=O)c2ccc(-c3ccc(=O)[nH]n3)o2)CC1,–,inactive: -4.64%
CCc1cnc2c(c1SCC(=O)c1ccccc1)c(=O)n(C)c(=O)n2C,–,inactive: 7.78%
COc1ccc2nc(SCC(=O)Nc3c(C)cccc3C)[nH]c2c1,–,inactive: 2.4%
COc1cccc2c(=O)c3c(cnn3C)n(C)c12,"inconclusive: 39.8 µM [inhibitor, partial curve]",–
Cc1cc(NS(=O)(=O)c2ccc(NC(=O)CSc3nc4sc(C(=O)O)c(C)c4c(=O)[nH]3)cc2)no1,–,inactive: -24.2%
CC(=O)c1c(C)[nH]c(C(=O)OCC(=O)NNC(=O)c2ccc([N+](=O)[O-])cc2)c1C,–,inactive: -15.1%
COc1ccc(N2CC(C(=O)Nc3nnc(SCCC4OCCO4)s3)CC2=O)cc1 (configuration not stated),–,inactive: -22.1%
N#Cc1ccc(-c2ccc(C3Nc4ccccc4C(=O)N3O)o2)cc1 (configuration not stated),"inconclusive: 89.1 µM [inhibitor, partial curve, poor fit]",–
CC1Sc2ccc(C(=O)NCc3ccccn3)cc2NC1=O (configuration not stated),–,inactive: -7.16%
Cc1ccc(S(=O)(=O)c2cc(Nc3ccccc3)ccc2O)cc1,"inconclusive: 56.2 µM [inhibitor, partial curve, poor fit]",–
O=C(Nc1ccc(S(=O)(=O)Nc2nccs2)cc1)/C(=C/c1ccccc1Cl)NC(=O)c1ccccc1,"inconclusive: 89.1 µM [inhibitor, partial curve, poor fit]",–
CCc1ccccc1N(C)S(=O)(=O)c1ccc2c(c1)C(C)(C)C(=O)N2C,–,inactive: 2.97%
CCN(CC)S(=O)(=O)c1nnc(NC(=O)c2ccc(Br)cc2)s1,–,inactive: 0.338%
O=S(=O)(c1ccccc1)c1nc(-c2cccc(Cl)c2)oc1N1CCOCC1,"inconclusive: 79.4 µM [inhibitor, partial curve, poor fit]",–
Cc1c(NS(=O)(=O)c2cccc(C(=O)N3CCCC3)c2)c(=O)n(-c2ccccc2)n1C,–,inactive: -6.05%
Cc1ccc(C)c(S(=O)(=O)Nc2cc(SCC(=O)O)c(O)c3ccccc23)c1,active: 56.2 µM,–

SMILES,Potency,"activity change, negative = inhibition"
O=c1[nH]c(=S)[nH]c2sccc12,–,inactive: -1.29%
Cn1c(NCc2ccccc2O)nc2ccccc21,"inconclusive: 89.1 µM [inhibitor, partial curve, poor fit]",–
Cc1ccc(CN2CCN(/N=C/C=C/c3ccccc3[N+](=O)[O-])CC2)cc1,"inconclusive: 44.7 µM [inhibitor, partial curve, poor fit]",–
COc1ccccc1N1CCN(C(=O)C(=O)c2c[nH]c3ccccc23)CC1,"inconclusive: 50.1 µM [inhibitor, partial curve, poor fit]",–
O=C1c2ccccc2C(=O)c2c(NCCCN(CCO)CCO)cccc21,active: 20 µM,–
CCOC(=O)c1sc(NNC(=O)c2ccc(F)cc2)nc1C,–,inactive: -2.62%
CCN1C(C(=O)c2ccccc2)=C(OC(=O)c2ccc(Cl)cc2)c2ccccc2S1(=O)=O,"inconclusive: 89.1 µM [inhibitor, single point]",–
Cc1cc(Nc2cccc(F)c2)nc(NCc2ccccc2)n1,"inconclusive: 79.4 µM [inhibitor, partial curve, poor fit]",–
Cc1nc2c(sc3nc(N4CCOCC4)c4c(c32)CC(C)(C)OC4)c(-c2ccccc2)c1C(=O)O,"inconclusive: 89.1 µM [inhibitor, single point]",–
Cc1[nH]n(-c2ccccc2)c(=O)c1C(c1cccc([N+](=O)[O-])c1)c1c(C)[nH]n(-c2ccccc2)c1=O,"inconclusive: 89.1 µM [inhibitor, partial curve, poor fit]",–
CCCCNc1c(-c2ccc(OC)c(SC3CCCCC3)c2)nc2cnccn12,"inconclusive: 100 µM [inhibitor, single point]",–
COc1cc(/C=N/Nc2cc(C)nc(NS(=O)(=O)c3ccc(C)cc3)n2)ccc1O,"inconclusive: 70.8 µM [inhibitor, partial curve, poor fit]",–
COc1ccc(-c2cc(C(=O)Oc3ccc(Cl)cc3)c3ccccc3n2)cc1,–,inactive: 6.58%
CC1(C)Oc2ccc3ccc(=O)oc3c2/C(=C/Nc2ccc(O)cc2)C1=O,"inconclusive: 50.1 µM [inhibitor, partial curve, poor fit]",–
Cn1c2ccccc2c(=O)c2ccc(NCc3ccc4c(c3)OCO4)cc21,"inconclusive: 31.6 µM [inhibitor, partial curve, poor fit]",–
CCOC(=O)C1(C(C)(C)CC)CC(CSc2nc3ccccc3[nH]2)OC1=O (configuration not stated),"inconclusive: 79.4 µM [inhibitor, partial curve, poor fit]",–
CC(OC(=O)c1ccc([N+](=O)[O-])o1)C(=O)Nc1nc(-c2ccc(F)c(F)c2)cs1 (configuration not stated),"inconclusive: 25.1 µM [inhibitor, full curve]",–
COc1ccc(C(=O)c2cn(Cc3ccc(F)cc3)c3c(F)cc(F)cc3c2=O)cc1,active: 89.1 µM,–
CCOC(=O)c1ccc(N2C(=O)c3n[nH]c(-c4ccco4)c3C2c2cccc(F)c2)cc1 (configuration not stated),"inconclusive: 28.2 µM [inhibitor, partial curve, poor fit]",–
COc1ccccc1C(=O)Nc1ccc(-c2nc3cc(C)cc(C)c3o2)cc1,–,inactive: 8.17%
CC(=O)OCC#CCSc1nc2ccccc2n1C,–,inactive: -5.39%
Cn1nnnc1SCC1=C(C(=O)O)N2C(=O)[C@@H](NC(=O)[C@H](O)c3ccccc3)[C@H]2SC1,"inconclusive: 44.7 µM [inhibitor, partial curve, poor fit]",–
CC(C)c1ccc(S(=O)(=O)Nc2cc3c(cc2NCc2ccccc2)n(C)c(=O)n3C)cc1,–,inactive: -28.6%

SMILES,Potency,"activity change, negative = inhibition"
CCC(=O)Nc1ccc(C(=O)COC(=O)c2nc3nccc(C)n3n2)cc1,"inconclusive: 50.1 µM [inhibitor, partial curve]",–
CC(C)(C)c1cnnn1-c1ccc(C(=O)CCl)cc1,–,inactive: -6.92%
Cc1cccc(C(=O)Nc2nc3c(s2)CCCC3)c1,–,inactive: 5.33%
CC(C)n1cnc2c(NCc3ccccc3)cc(N[C@H](C)CO)cc21,"inconclusive: 2.51 µM [inhibitor, full curve, poor fit]",–
COc1ccc(Nc2nc(N)nc(CSc3nnc(C)s3)n2)cc1,"inconclusive: 20 µM [inhibitor, full curve, poor fit]",–
COc1cccc(C2C(C#N)=C(N)SC(c3ccccc3)C2[N+](=O)[O-])c1 (configuration not stated),"inconclusive: 50.1 µM [inhibitor, partial curve, poor fit]",–
COc1cccc(-c2nc(CS(=O)(=O)CC(=O)Nc3cc(OC)ccc3OC)c(C)o2)c1,–,inactive: 20.4%
COc1ccc(Cc2cc(NCc3ccccc3)c3ncn(C(C)C)c3c2)cc1,"inconclusive: 70.8 µM [inhibitor, partial curve, poor fit]",–
COc1ccc2[nH]c(C(O)C(O)c3nc4c(OC)c(OC)ccc4[nH]3)nc2c1OC (configuration not stated),"inconclusive: 89.1 µM [inhibitor, partial curve, poor fit]",–
CC(SC1=NCCN1S(=O)(=O)c1ccc(F)cc1)c1ccccc1 (configuration not stated),"inconclusive: 39.8 µM [inhibitor, partial curve, poor fit]",–
COc1ccc(-c2nc3oc4cc(OC)ccc4c(=O)c3c(=O)n2Cc2ccco2)cc1,"inconclusive: 79.4 µM [inhibitor, partial curve, poor fit]",–
Cn1nc(C(F)(F)F)c2cc(NC(=O)OCC(C)(C)C)sc21,"inconclusive: 79.4 µM [inhibitor, partial curve, poor fit]",–
COc1ccc2nc(N/C(N)=N/C(=S)Nc3ccccc3)nc(C)c2c1,"inconclusive: 89.1 µM [inhibitor, single point]",–
CCn1c(SCC(=O)NC(=O)NCc2ccco2)nnc1-c1cccs1,–,inactive: 5.32%
C/C(=N\Nc1cccc2cccnc12)c1ccc(N)cc1,"inconclusive: 39.8 µM [inhibitor, partial curve, poor fit]",–
COc1ccc(NC(=O)CSc2nc(-c3ccccc3)cc(-c3cc(OC)c(OC)c(OC)c3)c2C#N)c(OC)c1,–,inactive: -11.9%
COc1ccc(-c2nnc(SCC(=O)Nc3cccc(C)c3)s2)cc1,–,inactive: 14.9%
CCNc1ccc(/C=C/c2ccnc3ccccc23)cc1,"inconclusive: 79.4 µM [inhibitor, single point]",–
CCCCOC(=O)c1ccc(NC(=O)C2(c3cccs3)CCOCC2)cc1,"inconclusive: 44.7 µM [inhibitor, partial curve, poor fit]",–
O=C(Nc1ccccc1N1CCOCC1)c1ccc2ccccc2c1,"inconclusive: 89.1 µM [inhibitor, partial curve, poor fit]",–
CCCCNC(=O)CSc1ccc(S(=O)(=O)N2CCOCC2)cn1,"inconclusive: 89.1 µM [inhibitor, partial curve, poor fit]",–
